Data published in PubChem BioAssay AID624296 (National Center for Advancing Translational Sciences (NCATS), 2012).
Screen size: about 350,000 compounds; about 9,900 (2.8%) were called active. The inconclusive results got no clear call from the source; some entries with a clear call stand among them for comparison. Calls follow the shape of the dose curve; as a rule, active = well fitted activation curve with a large enough effect; inconclusive = small, poorly fitted or top-dose-only effect; inactive = no such curve, though single readings can be large or run the other way. No potency is given beside an inconclusive call; the fits are too rough.

test: A quantitative high throughput screen for small molecules that induce DNA re-replication in MCF 10a normal breast cells.; also: nearly all actives have a fitted effect of over 50% in size; as to activity, positive = re-replication: % of control where 0% means no effect; conditions: MCF 10A DNA re-replication, Hoechst nuclear intensity, 48 h; activity, positive = re-replication: at 46.1 µM (top of the series)
Potency is read from the fitted curve at half-maximal effect; tags tell the direction and shape of the fitted curve.

| SMILES | Potency | activity, positive = re-replication |
| --- | --- | --- |
| COc1cccc(/C=N/n2cnc3cc(C)c(C)cc32)c1OC | inconclusive [activator, single point] | – |
| Cc1cc(/C=C(\C#N)C(=O)NCc2cccs2)c(C)n1-c1ccccc1F | inconclusive [activator, single point] | – |
| Cc1ccc(C)c(N2CCN(c3nnnn3-c3ccccc3)CC2)c1 | inconclusive [activator, single point] | – |
| O=C(NN=CC=Cc1ccccc1)C(O)C(O)C(=O)NN=CC=Cc1ccccc1 (stereo not drawn) | inconclusive [activator, single point] | – |
| CCOc1cc2[nH]c(=S)n(Cc3ccc(C(=O)N4CCN(C)CC4)cc3)c(=O)c2cc1OCC | inconclusive [activator, single point] | – |
| Cc1cc(C)c2c(=O)n(CC(=O)Nc3ccc(Cl)cc3)sc2n1 | inconclusive [activator, partial curve, poor fit] | – |
| CC(=O)N1CCN(c2ccccc2NC(=O)c2cccc3c(Cl)cccc23)CC1 | – | inactive: 11.2% |
| CCC(C)Sc1cc(C)c(C#N)c2nc3ccccc3n12 (stereo not drawn) | inconclusive [activator, single point] | – |
| CC1(C)Cc2nc3sc4c(SCC(=O)NC(c5ccccc5)c5ccccc5)ncnc4c3cc2CO1 | inconclusive [activator, single point] | – |
| COc1ccccc1NC(=O)C(C)OC(=O)COc1cccc2c1OC(C)(C)C2 (stereo not drawn) | – | inactive: -1.47% |
| N#C/C(=C/c1cccc(O)c1)C(=O)NCc1ccc(Cl)cc1 | inconclusive [activator, single point] | – |
| O=c1c(-c2ccccc2Cl)coc2c(CN3CCCCC3)c(O)ccc12 | – | inactive: -5% |
| Cc1cc(-c2nc3ncccc3o2)ccc1NC(=O)c1ccc([N+](=O)[O-])o1 | inconclusive [activator, single point] | – |
| FCCCOc1ccc(/C=N/OCc2c(Cl)cccc2Cl)cc1 | inconclusive [activator, single point] | – |
| CC1CCN(CCCNC(=O)c2ccc3c(=O)n(Cc4ccc(Cl)cc4)c(=S)[nH]c3c2)CC1 | inconclusive [activator, single point] | – |
| COc1ccc(NC(=O)c2cccc3c(Br)cccc23)cc1 | inconclusive [activator, single point] | – |
| Cc1cc(Nc2ccccc2)n(C(=O)c2ccc(N)cc2)n1 | inconclusive [activator, full curve, poor fit] | – |
| CC(C)(C)OC(=O)NNc1c2ccccc2nc2ccccc12 | inconclusive [activator, single point] | – |
